The source of these data is publication PMC4336329 (PLoS ONE, 2015).

Each structure is given as a SMILES string. About 14,000 (4.5%) of roughly 310,000 compounds showed an effect of 50% or more. The effect is printed as a negative number. The list shows a part of the results.
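Further: peak tail current of the secondary pulse compared with the same well before compound.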

Sequence of human ether-à-go-go-related gene (hERG) potassium channel (Q12809 whole entry, looked up): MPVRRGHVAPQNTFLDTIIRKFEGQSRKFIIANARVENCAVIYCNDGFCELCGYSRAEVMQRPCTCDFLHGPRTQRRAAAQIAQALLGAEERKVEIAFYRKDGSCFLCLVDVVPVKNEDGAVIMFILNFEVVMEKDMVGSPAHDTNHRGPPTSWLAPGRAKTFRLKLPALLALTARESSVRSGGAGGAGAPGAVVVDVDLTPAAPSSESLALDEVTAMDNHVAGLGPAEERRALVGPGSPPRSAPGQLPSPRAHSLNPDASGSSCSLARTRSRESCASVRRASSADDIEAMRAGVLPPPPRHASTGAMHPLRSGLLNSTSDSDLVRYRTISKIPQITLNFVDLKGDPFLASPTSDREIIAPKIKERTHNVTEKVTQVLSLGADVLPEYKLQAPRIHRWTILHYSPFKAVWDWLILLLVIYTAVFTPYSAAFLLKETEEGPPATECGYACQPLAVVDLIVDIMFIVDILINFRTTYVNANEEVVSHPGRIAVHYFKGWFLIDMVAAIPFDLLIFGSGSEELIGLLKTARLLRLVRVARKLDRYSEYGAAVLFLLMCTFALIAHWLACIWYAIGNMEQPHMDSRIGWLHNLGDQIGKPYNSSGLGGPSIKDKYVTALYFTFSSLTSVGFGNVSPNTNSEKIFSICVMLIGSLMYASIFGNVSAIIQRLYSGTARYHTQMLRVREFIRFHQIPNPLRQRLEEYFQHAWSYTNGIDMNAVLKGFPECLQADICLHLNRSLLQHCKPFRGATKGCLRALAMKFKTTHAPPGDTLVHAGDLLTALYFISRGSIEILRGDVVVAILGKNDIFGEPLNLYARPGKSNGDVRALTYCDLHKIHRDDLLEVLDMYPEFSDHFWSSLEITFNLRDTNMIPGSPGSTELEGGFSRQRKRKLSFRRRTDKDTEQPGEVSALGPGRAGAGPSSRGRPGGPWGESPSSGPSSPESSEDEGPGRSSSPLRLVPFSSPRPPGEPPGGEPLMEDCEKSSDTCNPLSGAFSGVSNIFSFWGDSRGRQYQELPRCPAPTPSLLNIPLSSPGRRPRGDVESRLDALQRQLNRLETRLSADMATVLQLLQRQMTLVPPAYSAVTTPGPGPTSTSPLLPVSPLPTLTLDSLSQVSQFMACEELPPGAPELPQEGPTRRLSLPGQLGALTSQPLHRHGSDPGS

The experiment concerns the target human ether-à-go-go-related gene (hERG) potassium channel (human, UniProt Q12809). Briefly: primary screen, population patch clamp on CHO cells stably expressing hERG.
As for `O=C(NCCOc1ccccc1Cl)c1cccc2c1C(=O)c1ccc(Cl)cc1S2(=O)=O`, the “hERG current change (%, negative = inhibition) at 10uM” value was 8.93%.
As to `COc1ccc(C(=O)Nc2ncc3c(n2)-c2ccccc2CC3)cc1`, the “hERG current change (%, negative = inhibition) at 10uM” value was -40.5%.
`O=C(c1ccc(NC(=S)Nc2ccc(Cl)c(Cl)c2)cc1)N1CCCC1`: the “hERG current change (%, negative = inhibition) at 10uM” value was -34.8%.
In the case of `CCOC(=O)c1sc2nc(CSCC(=O)OCc3ccc(C(=O)OC)o3)[nH]c(=O)c2c1C`, the “hERG current change (%, negative = inhibition) at 10uM” value was -8.69%.
As for `Cc1ccc(S(=O)(=O)N2CCN(C(=O)c3ccc(OCc4c(C)noc4C)cc3)CC2)cc1`, the “hERG current change (%, negative = inhibition) at 10uM” value is given as 4.68%.
As for `NS(=O)(=O)c1cccc(NC(=O)COC(=O)Cn2cnc3ccccc32)c1`, the “hERG current change (%, negative = inhibition) at 10uM” value is on record as 19.8%.
With `CC(=O)OC1CC[C@]2(C#N)[C@H]3CC[C@]4(C)[C@H](C5C=CC(=O)O5)CCC4(O)C3CCC2(O)C1` (some centres unmarked), the “hERG current change (%, negative = inhibition) at 10uM” value is on record as 12.9%.
Regarding `Cc1oc(-c2cc(Cl)cc(Cl)c2)cc1C(=O)NCCc1ccccc1`, the “hERG current change (%, negative = inhibition) at 10uM” value turned out to be 34.4%.
For `COc1ccc(NC2CCCN(C(=O)c3ccc(CSC)o3)C2)cc1OC` (centres unmarked), the “hERG current change (%, negative = inhibition) at 10uM” value is given as -12.6%.
Turning to `C=CCn1c(=NC(=O)C2CC2)sc2cc(NC(C)=O)ccc21`, the “hERG current change (%, negative = inhibition) at 10uM” value is -1.61%.
For the compound `O=C(O)c1[nH]c2ccccc2c1CC(=O)N1CCN(c2ccccc2)CC1`, the “hERG current change (%, negative = inhibition) at 10uM” value came out at 30%.
Regarding `COC(=O)c1cccc(CSc2nc(-c3ccccc3)c(C#N)c(=O)[nH]2)c1`, the “hERG current change (%, negative = inhibition) at 10uM” value is recorded as 16.8%.
For `CCOP(=O)(OCC)C(Nc1cccc(C(F)(F)F)c1)c1ccc(C)cc1` (centres unmarked) the value was 11.9%.
For `COc1ccc(-c2nc3ccccc3o2)cc1OC`, the “hERG current change (%, negative = inhibition) at 10uM” value is reported as -2.33%.
With `CCOC(=O)N/N=C\c1ccc(-c2cccc(C(F)(F)F)c2)o1` the figure was -2.79%; with `CSc1ccccc1NC(=O)CN(C)Cc1c(O)ccc2ccccc12`, 7.52%.
Regarding `CC(C)(C)/C(Cn1cncn1)=N\OC(=O)Nc1ccc(Cl)cc1`, the “hERG current change (%, negative = inhibition) at 10uM” value is on record as -10.6%.
For `Cc1cc(F)ccc1S(=O)(=O)Nc1ccc(C(=O)N2CCCCCC2)cc1`, the “hERG current change (%, negative = inhibition) at 10uM” value is listed as -27.6%.
Consider `Cc1ccnc(NC(=O)c2ccc(OCC3CCCO3)cc2)c1` (centres unmarked), for which the “hERG current change (%, negative = inhibition) at 10uM” value is recorded as -3.31%.
On to `O=c1ccn(CCCBr)c(=O)[nH]1`, for which the “hERG current change (%, negative = inhibition) at 10uM” value is 18%.
Consider `CCC(C)NC(=S)Nc1ccccc1OC` (centres unmarked), for which the “hERG current change (%, negative = inhibition) at 10uM” value is listed as 8.17%.
As to `COC(=O)C1(C)NC(c2ccc(OC)cc2)C2C(=O)N(c3ccccc3)C(=O)C21` (centres unmarked), the “hERG current change (%, negative = inhibition) at 10uM” value is given as 3.89%.
As to `CCCCC(NC(=O)c1cccc(Br)c1)C(=O)O` (centres unmarked), the “hERG current change (%, negative = inhibition) at 10uM” value worked out at 9.42%.
For the compound `CCOc1ccccc1C(=O)NC(CO)C(=O)O` (centres unmarked), the “hERG current change (%, negative = inhibition) at 10uM” value is -10.1%.
For `C=CCn1c(-c2ccccc2OC)n[nH]c1=S` the value was 28.2%; for `CN(C(=O)Nc1ccccc1)n1cnc2ccccc2c1=O`, 4.3%.
In the case of `CC(=O)CCC(=O)NC1CCCc2c1cnn2-c1ccc(C(C)(C)C)cc1` (centres unmarked), the “hERG current change (%, negative = inhibition) at 10uM” value is -1.5%.
For `COc1cnc(-c2ccccc2)nc1Sc1ccccc1` the value was 39.9%; for `COc1cc(C2C(C#N)=C(N)N(N(C)C)C3=C2C(=O)CCC3)ccc1O` (centres unmarked), 13.8%; for `Cc1nc(SCC(=O)N2CCCCCC2)[nH]c(=O)c1C`, 19.5%.
With `CCN(CC)S(=O)(=O)c1ccc(/C(O)=C2/C(=O)C(=O)N(CCOC)C2c2ccccc2)cc1` (centres unmarked), the “hERG current change (%, negative = inhibition) at 10uM” value is listed as 11.6%.
Consider `O=C(CCC(=O)N1CCN(c2ccccn2)CC1)c1ccc(Cl)s1`, for which the “hERG current change (%, negative = inhibition) at 10uM” value is on record as -36%.
As to `N#Cc1c(-c2ccccc2)c(-c2ccccc2)nn(CC(=O)NNC(=O)Nc2ccccc2)c1=O`, the “hERG current change (%, negative = inhibition) at 10uM” value was 27.8%.
For `Nc1[nH]n2c(=O)cc(-c3ccccc3)nc2c1N=Nc1ccc(S(N)(=O)=O)cc1`, the “hERG current change (%, negative = inhibition) at 10uM” value is on record as 1.01%.
Regarding `CCOC(=O)CSc1c(-c2cccs2)[nH]c2ccccc12`, the “hERG current change (%, negative = inhibition) at 10uM” value is reported as -1.44%.
On to `CCOc1ccccc1NC(=O)COc1ccc2ccc(=O)oc2c1`, for which the “hERG current change (%, negative = inhibition) at 10uM” value turned out to be 13%.
As to `CC(=O)NCC1=C(NC(C)=O)C2CC1C(C)(C)C2C` (centres unmarked), the “hERG current change (%, negative = inhibition) at 10uM” value is listed as 18.9%.
With `O=C(NCCN1CCOCC1)c1cc(Br)ccc1Cl`, the “hERG current change (%, negative = inhibition) at 10uM” value amounted to 15.2%.
In the case of `CCOc1ccc2nc(N(CCCN(C)C)C(=O)c3ccc(S(=O)(=O)N4CCCC4)cc3)sc2c1.Cl`, the “hERG current change (%, negative = inhibition) at 10uM” value is given as -70.4%.
In the case of `COc1ccc(S(=O)(=O)NCC(=O)O)cc1C(=O)NC1CCCCC1`, the “hERG current change (%, negative = inhibition) at 10uM” value is 35.2%.
In the case of `O=C(COC(=O)CCNS(=O)(=O)c1cccs1)Nc1cc(C(F)(F)F)ccc1Cl`, the “hERG current change (%, negative = inhibition) at 10uM” value is reported as -26.1%.
On to `COc1ccc(O)c(/C=N/NC(=O)c2ccc(N3CCCC3=O)cc2)c1`, for which the “hERG current change (%, negative = inhibition) at 10uM” value is recorded as -0.354%.
For `Cn1cc(S(=O)(=O)N2CCc3ccccc32)cc1C(=O)NC1CCCCC1` the value was 2.95%; for `CCOC(=O)C1=C(N)N(c2ccccc2)C2=C(C(=O)CCC2)C1c1cccnc1` (centres unmarked), -4.55%; for `CN(C)C=NCCn1c(N2CCOCC2)nc2c1c(=O)n(C)c(=O)n2C.Cl`, -2.83%.
With `CCCCn1cc([N+](=O)[O-])nc1C` the figure was 21%.
For `CC1CCC2(CC1)NC(=O)N(CC(=O)Nc1ccc(N3CCOCC3)cc1)C2=O` (centres unmarked) the value was -9.35%; for `O=C(N=C1SC2CS(=O)(=O)CC2N1c1cccc(F)c1)C1CC1` (centres unmarked), 26.6%; for `Cc1ccc(-c2onc(C)c2C)cc1S(=O)(=O)N1CCOc2ccccc21`, 9.26%.
Regarding `CCNC(=O)NC(=O)C(C)OC(=O)c1oc2ccc(OCC)cc2c1C` (centres unmarked), the “hERG current change (%, negative = inhibition) at 10uM” value came to 2.31%.
Consider `CCC(C)(C)NC(=O)CN(C(=O)CCC(=O)Nc1nccs1)c1cccc(C)c1C`, for which the “hERG current change (%, negative = inhibition) at 10uM” value was found to be 0.481%.
For `O=C(CN1CCN(S(=O)(=O)c2ccccc2)CC1)Nc1ccc2c(c1)OCO2`, the “hERG current change (%, negative = inhibition) at 10uM” value is on record as -44.1%.
Consider `COC(=O)CN(C#N)c1nc(OC)nc(N(C)C)n1`, for which the “hERG current change (%, negative = inhibition) at 10uM” value is given as -4.12%.
With `CC(O)C(NC=C1C(=O)OC(C)(C)OC1=O)C(=O)O` (centres unmarked), the “hERG current change (%, negative = inhibition) at 10uM” value stood at 21%.
With `NC(=O)Cn1cnc2c(nnn2-c2ccc(F)cc2)c1=O` the figure was 2.12%; with `COc1cccc(C(=O)N2CCN(C(=O)C3CCCO3)CC2)c1` (centres unmarked), 24.1%.
`COc1ccc(NC(=O)NC(C(F)(F)F)C(F)(F)F)cc1`: the “hERG current change (%, negative = inhibition) at 10uM” value stood at 15.1%.
Regarding `CCn1c(SCC(=O)OC)nc2sc3c(c2c1=O)CCC3`, the “hERG current change (%, negative = inhibition) at 10uM” value was -9.34%.
As for `CN1CCN(CCCc2c3c(cc4c2CCC4)CCC3)CC1.Cl`, the “hERG current change (%, negative = inhibition) at 10uM” value is given as -19.8%.
For `O=C(COc1ccccc1Cl)NC(=S)Nc1ccc(CN2CCOCC2)cc1`, the “hERG current change (%, negative = inhibition) at 10uM” value is listed as 2.66%.
In the case of `CN1CCN(/N=C/c2ccc(Br)cc2)CC1.Cl`, the “hERG current change (%, negative = inhibition) at 10uM” value is recorded as -12.8%.
With `COc1ccc(/C=N/NC(=O)c2ccncc2)cc1Cn1nc([N+](=O)[O-])c(Br)c1C` the figure was -49.4%.
Regarding `CCN(c1ccccc1)S(=O)(=O)c1ccc(F)cc1C`, the “hERG current change (%, negative = inhibition) at 10uM” value is reported as -22.7%.
As for `O=C(O)c1ccc(CN(c2ccccn2)S(=O)(=O)c2ccccc2)cc1`, the “hERG current change (%, negative = inhibition) at 10uM” value worked out at 10.7%.
For `CCC(=O)Nc1nc(-c2ccc3c(c2)CC(C)N3S(C)(=O)=O)cs1` (centres unmarked) the value was 2.09%; for `COc1cc(CN2CCNC(=O)C2CC(=O)NC2CCCC2)cc(OC)c1` (centres unmarked), -8.68%; for `COc1ccc(C(=O)NC(=S)NCc2cccnc2)cc1Cl`, -1.7%.
For the compound `CC(C)[C@H](NC(=O)C1CCN(S(=O)(=O)c2ccccc2)CC1)C(=O)NCc1ccccc1`, the “hERG current change (%, negative = inhibition) at 10uM” value is 10.2%.
For `Cc1c(C(=O)NC2CCCc3ccccc32)oc2ccc(S(=O)(=O)N3CCCC3)cc12` (centres unmarked) the value was 12%.
For `CCCCN(Cc1ccccc1)S(=O)(=O)c1c(N)n(C)c(=O)n(C)c1=O` the value was 2.35%; for `O=C(/C=C/c1ccco1)NC(=S)Nc1ccccc1Br`, 19%; for `CCOC(=O)c1ccc(NC(=O)c2cn(CCC#N)nc2-c2ccc3c(c2)OCCO3)cc1`, -4.59%.
As to `CC(OC(=O)/C=C/c1ccc(Br)cc1)C(=O)N1CCOCC1` (centres unmarked), the “hERG current change (%, negative = inhibition) at 10uM” value is on record as -10.8%.
`CCOc1ccc(/C=C/C(=O)NC2CCCCC2)cc1`: the “hERG current change (%, negative = inhibition) at 10uM” value is -5.16%.
Turning to `Cc1cc(C(F)(F)F)n(-c2nc(C(=O)N/N=C/c3ccc(F)cc3)cs2)n1`, the “hERG current change (%, negative = inhibition) at 10uM” value is -14.2%.
For `Cc1ccc(NCCNc2ccc(C)cc2)cc1` the value was -7.18%; for `CCOc1ccc(-n2cnnn2)cc1S(=O)(=O)N1CCCCC1`, -10.1%.
On to `CNC(=S)NNC(=O)Cc1ccccc1`, for which the “hERG current change (%, negative = inhibition) at 10uM” value is -2.98%.
Turning to `CS(=O)(=O)N1N=C(c2ccco2)CC1c1ccccc1` (centres unmarked), the “hERG current change (%, negative = inhibition) at 10uM” value turned out to be 18.2%.
For `Cc1ccccc1CNC(=O)Cc1ccccc1[N+](=O)[O-]` the value was -4.8%; for `CCOc1cc(CNc2ccc(Br)cc2)cc(Br)c1OCC(=O)NC(C)(C)C`, -1.64%.
For `O=C(CSc1ncnc2c(-c3ccc(Cl)cc3)nsc12)c1ccccc1` the value was 5.06%; for `CCN(C(=O)Cc1cccs1)c1nnc(-c2cc(OC)c(OC)c(OC)c2)s1`, 3.03%; for `O=C1COc2ccc(C(=O)COC(=O)C3CC(O)CN3S(=O)(=O)c3ccc(Cl)cc3)cc2N1` (centres unmarked), -16.8%.
`CC(C)CCn1c(=O)c2ccccc2n2c(CN(C)Cc3ccccc3)nnc12`: the “hERG current change (%, negative = inhibition) at 10uM” value is -80.7%.
`CC(=O)C1=C(O)C(=O)N(c2ccc(S(N)(=O)=O)cc2)C1c1ccccc1F` (centres unmarked): the “hERG current change (%, negative = inhibition) at 10uM” value amounted to 13.5%.
With `Cc1c(C(=O)N(Cc2ccccc2)Cc2cccs2)cnn1-c1ccc(Cl)cc1`, the “hERG current change (%, negative = inhibition) at 10uM” value was -3.32%.
Regarding `C=CCNC(=S)Nc1ccc2cn[nH]c2c1`, the “hERG current change (%, negative = inhibition) at 10uM” value is reported as -1.08%.
For `CC(C)CCOP(=O)(c1ccc(N(C)C)cc1)C(O)c1ccccc1` (centres unmarked) the value was -30.4%.
